Reference: PMC9307175
These are yes or no findings as the source states them, for the method shown. For some assays here: In cells and extracts the contact can be indirect. Some entries that bind do so weakly or less than the wild type.

Experiments:
[1] = target: chitin-binding domain (CBD)-tagged IRF9 (human (HeLa cDNA library)) (UniProt Q00978); assay: co-IP
[2] = target: Flag-tagged STAT1 (pCEBZ-STAT1-SF) (human) (UniProt P42224); assay: co-IP
[3] = target: IRF9-Flag/STAT2-CBD complexes isolated by Flag IP and chitin AP from IFNβ-treated transfected 293T cells (human | human (HeLa cDNA library)) (UniProt Q00978); assay: co-IP
S-peptide-tagged JAK1 = S-peptide-tagged JAK1 (UniProt P23458); assay: co-IP
S-peptide-tagged TYK2 = S-peptide-tagged TYK2 (UniProt P29597); assay: co-IP
[4] = target: STAT1-Flag/IRF9-CBD complexes (ISGF3) isolated by Flag IP and chitin AP from IFNβ-treated transfected 293T cells (human | human (HeLa cDNA library) | human (endogenous in 293T)) (UniProt P42224); assay: co-IP
[5] = target: chitin-binding domain (CBD)-tagged STAT2 (human (HeLa cDNA library)) (UniProt P52630); assay: co-IP
[6] = target: STAT1-Flag/STAT2-CBD complexes isolated by Flag IP and chitin AP from IFNβ-treated transfected 293T cells (human | human (HeLa cDNA library)) (UniProt P42224); assay: co-IP
[7] = target: Flag-tagged IRF9 (pCEBZ-IRF9-SF) (human) (UniProt Q00978); assay: co-IP
[8] = target: STAT1-Flag/STAT2-CBD complexes isolated by Flag IP and chitin AP from IFNβ-treated transfected 293T cells (human | human (HeLa cDNA library)) (UniProt P42224); assay: pull-down; both purified
[9] = target: StrepII+Flag (SF)-tagged vIRF-1 (human herpesvirus 8 (HHV-8)) (UniProt F5HF68); assay: co-IP
[10] = target: S-peptide-tagged IFNAR1 (human) (UniProt P17181); assay: co-IP
[11] = target: chitin-binding domain (CBD)-tagged IFNAR1 (human (HeLa cDNA library)) (UniProt P17181); assay: co-IP
[12] = target: STAT2, endogenous in iBCBL-1 cells (human (endogenous in iBCBL-1)) (UniProt P52630); assay: co-IP
[13] = target: STAT1, endogenous in iBCBL-1 cells (human (endogenous in iBCBL-1)) (UniProt P42224); assay: co-IP
[14] = target: T1, IRF9, endogenous in iBCBL-1 cells (human (endogenous in iBCBL-1)) (UniProt Q00978); assay: co-IP
T1 sequence: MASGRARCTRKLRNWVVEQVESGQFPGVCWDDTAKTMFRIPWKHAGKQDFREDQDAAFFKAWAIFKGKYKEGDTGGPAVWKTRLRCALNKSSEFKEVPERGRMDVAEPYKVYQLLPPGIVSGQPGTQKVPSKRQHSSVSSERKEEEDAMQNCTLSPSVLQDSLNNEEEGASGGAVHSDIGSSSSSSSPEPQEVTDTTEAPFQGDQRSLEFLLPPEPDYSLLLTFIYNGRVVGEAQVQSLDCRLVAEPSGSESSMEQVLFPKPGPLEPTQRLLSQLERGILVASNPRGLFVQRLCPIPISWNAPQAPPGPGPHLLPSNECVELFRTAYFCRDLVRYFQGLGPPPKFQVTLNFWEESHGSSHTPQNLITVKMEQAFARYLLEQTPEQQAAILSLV

[15] = target: STAT2, endogenous in iBCBL-1 cells (human (endogenous in iBCBL-1)) (UniProt P52630); assay: proximity ligation
[16] = target: STAT1, endogenous in iBCBL-1 cells (human (endogenous in iBCBL-1)) (UniProt P42224); assay: proximity ligation

StrepII+Flag (SF)-tagged vIRF-1 (from UniProt F5HF68 1-449)
binding [1]: binds

vIRF-1 from the 'vIRF-1 expression plasmid' coexpressed in transfected 293T cells (Figs 5A-F and 6) (from UniProt F5HF68 1-449)
binding [2]: binds
binding [3]: binds
binding (S-peptide-tagged JAK1): binds
binding (S-peptide-tagged TYK2): binds
binding [4]: no binding
binding [5]: binds
binding [6]: binds
binding [7]: binds

GST-fused recombinant vIRF-1 (pGEX-vIRF-1) (from UniProt F5HF68 1-449)
binding [8]: binds

chitin-binding domain (CBD)-fused STAT1 (from UniProt P42224 1-750)
binding [9]: binds

chitin-binding domain (CBD)-tagged STAT2 (from UniProt P52630 1-851)
binding (S-peptide-tagged TYK2): binds
binding [10]: binds

S-peptide-tagged TYK2 (from UniProt P29597 1-1187) (enzyme)
binding [11]: binds

HHV-8 viral interferon regulatory factor 1 (vIRF-1), naturally expressed in TRExBCBL1-RTA (iBCBL-1) PEL cells (from UniProt F5HF68 1-449)
binding [12]: binds
binding [13]: binds
binding [14]: binds
binding [15]: binds
binding [16]: binds

STAT2, endogenous in 293T cells (from UniProt P52630 1-851)
binding (S-peptide-tagged JAK1): binds
